# Experimental data published in the antibiotic and cytotoxicity screens of Wong et al. (2023).
# Some of the results follow.
# Columns and labels:
# [1] = tested on: HSkMC (human skeletal muscle cells); test: cytotoxicity call (relative viability < 0.9); settings: 10 µM
# [2] = tested on: HepG2; test: cytotoxicity call (relative viability < 0.9); settings: 10 µM
# [3] = tested on: S. aureus RN4220; test: growth inhibition call (relative growth <= 0.2); settings: 50 µM
Compound,cytotoxicity call [1],cytotoxicity call [2],growth inhibition call [3]
C[C@@H]1CN([C@@H](C)CO)C(=O)c2cccc(NC(=O)c3ccc(-c4nccs4)cc3)c2O[C@H]1CN(C)Cc1ccc2c(c1)OCO2,inactive,inactive,inactive
O=C(O)c1cc(F)c2nc(N3[C@@H]4CC[C@H]3C[C@@H](OCc3c(-c5ccccc5OC(F)(F)F)noc3C3CC3)C4)sc2c1,inactive,inactive,active
Cc1ccc(S(=O)(=O)Nc2ccc3c(c2)CC(=O)N([C@@H](C)CO)C[C@H](C)[C@H](CN(C)S(=O)(=O)c2c(C)noc2C)O3)cc1,inactive,inactive,inactive
CO[C@@H]1CN(C)C(=O)c2ccc(NS(C)(=O)=O)cc2OC[C@@H](C)N(C(=O)c2ccc3c(c2)OCO3)C[C@H]1C,inactive,inactive,inactive
CNCc1n[nH]c2c1CCC2,inactive,inactive,inactive
COc1ccc(CN(C)C[C@@H]2OCCCC[C@H](C)Oc3ccc(NC(=O)Nc4cccc5ccccc45)cc3C(=O)N([C@H](C)CO)C[C@@H]2C)cc1,inactive,inactive,inactive
CO[C@@H](CN(C)C(=O)C1CCOCC1)[C@@H](C)CN(C(=O)Nc1ccc(C(F)(F)F)cc1)[C@H](C)CO,inactive,inactive,active
C[C@H](CO)N1C[C@H](C)[C@@H](CN(C)Cc2ccncc2)Oc2cc(C#CC(C)(C)O)ccc2S1(=O)=O,inactive,inactive,inactive
COc1ccc2cc(S(=O)(=O)N[C@H](CC(=O)N[C@H](Cc3ccc(CN4[C@H](C)CCC[C@@H]4C)cc3)C(=O)N(C)C(C)C)c3ccc4c(c3)OCO4)ccc2c1,inactive,inactive,inactive
C[C@@H]1CN([C@@H](C)CO)C(=O)c2cccc(NC(=O)c3ccc(-c4nccs4)cc3)c2O[C@H]1CN(C)C(=O)Nc1cccc2ccccc12,inactive,inactive,inactive
Cc1noc(C)c1S(=O)(=O)N(C)C[C@H]1Oc2ccc(NS(=O)(=O)c3ccc(F)cc3)cc2C(=O)N([C@H](C)CO)C[C@H]1C,inactive,inactive,inactive
Cc1ccc(NC2=CC(=O)C[C@H](c3ccc(Cl)cc3)C2)cc1,inactive,inactive,inactive
CC(C)CC#Cc1ccc2c(c1)O[C@H](CN(C)C(=O)C1CCOCC1)[C@H](C)CN([C@@H](C)CO)S2(=O)=O,inactive,inactive,inactive
C[C@H]1CN([C@@H](C)CO)C(=O)Cc2cc(NC(=O)NC3CCCCC3)ccc2O[C@H]1CN(C)C(=O)Nc1cccc2ccccc12,inactive,active,inactive
CO[C@H]1CN(C)C(=O)c2ccc(NS(C)(=O)=O)cc2OC[C@H](C)N(C(=O)CN(C)C)C[C@H]1C,inactive,inactive,inactive
COCc1cc(C)[nH]c(=O)c1C#N,inactive,inactive,inactive
COCC#Cc1ccc2c(c1)O[C@@H](CN(C)C(=O)c1ccccc1)[C@@H](C)CN([C@H](C)CO)S2(=O)=O,inactive,inactive,inactive
COc1ccc(NC(=O)Nc2ccc3c(c2)C(=O)N([C@H](C)CO)C[C@@H](C)[C@@H](CN(C)S(=O)(=O)c2ccc(F)cc2)OCCCC[C@@H](C)O3)cc1,inactive,inactive,inactive
Cc1noc(C)c1S(=O)(=O)Nc1ccc2c(c1)CC(=O)N([C@H](C)CO)C[C@H](C)[C@@H](CN(C)S(C)(=O)=O)O2,inactive,inactive,inactive
O=C(C[C@H]1C=C[C@H](NC(=O)Nc2ccc3c(c2)OCO3)[C@H](CO)O1)NCCCN1CCOCC1,inactive,inactive,inactive
CC(C)(C)NC(=O)C[n+]1cccc(/C=N/O)c1,inactive,inactive,inactive
